Some of the results follow. The energies were worked out here from pooled read counts, against the library average; single values are noisy.
target: T1, Pho4 (S. cerevisiae) (UniProt P07270); experiment: relative binding free energy (BET-seq); higher = weaker binding; conditions: reference: library average
T1 sequence: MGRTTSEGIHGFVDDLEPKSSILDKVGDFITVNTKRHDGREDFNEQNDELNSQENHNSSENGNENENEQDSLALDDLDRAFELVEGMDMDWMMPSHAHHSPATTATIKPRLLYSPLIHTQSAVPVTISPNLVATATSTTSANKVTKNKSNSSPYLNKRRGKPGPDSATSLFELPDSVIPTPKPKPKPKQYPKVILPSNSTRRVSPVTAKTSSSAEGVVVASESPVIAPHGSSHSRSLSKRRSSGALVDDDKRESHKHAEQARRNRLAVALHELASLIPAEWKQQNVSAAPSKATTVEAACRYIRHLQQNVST

Relative binding free energy, -0.09 kcal/mol:
GGCAACACGTGTTGTG
TGGGACACGTGCGTGT
TGCCGCACGTGTAGGT
ACAGGCACGTGTTCGG

Relative binding free energy, 0.25 kcal/mol:
GTGTTCACGTGGATCT
CATTTCACGTGGATAG
TTGTTCACGTGAACAT
TGTCTCACGTGATTTA

Relative binding free energy, -0.15 kcal/mol:
AGAAGCACGTGGTGAT

Relative binding free energy, -0.04 kcal/mol:
AGGGACACGTGGTCGT
AGTCGCACGTGTACGG
GTAGGCACGTGACGTG
TTGGGCACGTGATAAT

Relative binding free energy, 0.38 kcal/mol:
GTGGTCACGTGAGCAT
GAGGTCACGTGATTCG
CAGATCACGTGCAGGG

Relative binding free energy, 0.07 kcal/mol:
TGGGACACGTGGAGAG
TGTGTCACGTGGCCGT
TCTGACACGTGTAGGG
ATGTGCACGTGGATCT
GGTGGCACGTGAGCGC
TTGCACACGTGTATTA

Relative binding free energy, 0.34 kcal/mol:
GTGCTCACGTGAGCGG

Relative binding free energy, 0.17 kcal/mol:
ATGTTCACGTGGGAAC
GTGCGCACGTGAGGGA
GATGTCACGTGTGAGG
CAGAGCACGTGGAAGG
CAGGTCACGTGTTGCT
TTTTGCACGTGTAGAG

Relative binding free energy, -0.02 kcal/mol:
GTTAACACGTGGATAG
TGAATCACGTGGGATG
TCGGGCACGTGTCGTT
CGGGACACGTGGCTGG

Relative binding free energy, 0.04 kcal/mol:
TAGTACACGTGGTCGT
TGGCCCACGTGTTGTT
GTCGGCACGTGTGGTC

Relative binding free energy, 0.18 kcal/mol:
ACTGTCACGTGTTGGA
TGTCGCACGTGAAGCG
CAGGTCACGTGTGGGC
ACTATCACGTGTGGTA
TTGTTCACGTGTGTCC

Relative binding free energy, 0.23 kcal/mol:
AGCTTCACGTGTAGGA
GGGACCACGTGAGGAG
TCCTTCACGTGGTGGG

Relative binding free energy, 0.45 kcal/mol:
GATTTCACGTGTCTTT

Relative binding free energy, 0.01 kcal/mol:
TTGACCACGTGTGTGT
TGCGACACGTGGAGGG
TATAACACGTGTGAGT
GGTAGCACGTGGATAG

Relative binding free energy, 0.12 kcal/mol:
TGCACCACGTGAGGGT
AAGGACACGTGATAGT
GATTGCACGTGGAATG

Relative binding free energy, -0.06 kcal/mol:
GGTAGCACGTGGCGAG
TGTGTCACGTGCTATG
GAGAGCACGTGGTCTT
TCTGACACGTGGGGGT

Relative binding free energy, 0.2 kcal/mol:
TGCTTCACGTGTTAAT
AGAGTCACGTGTCAGT
GTGTCCACGTGAGGGC

Relative binding free energy, 0.41 kcal/mol:
GAGCTCACGTGAGGGT

Relative binding free energy, -0.17 kcal/mol:
TTGTGCACGTGGCAAG

Relative binding free energy, 0.31 kcal/mol:
TGCATCACGTGACGTT

Relative binding free energy, -0.07 kcal/mol:
GTTCGCACGTGCGGGA
AGTGCCACGTGGGGAT
TGGCACACGTGGGTCT
ATAGCCACGTGGTTTG
TGGGACACGTGGTCGA
TGGGGCACGTGTGTTT
TGGGGCACGTGTGTTG
TGTGACACGTGCGTGG

Relative binding free energy, -0.21 kcal/mol:
ATGAGCACGTGTAGTA

Relative binding free energy, 0.19 kcal/mol:
GTATTCACGTGGTGTG
TGTTACACGTGAGGCA
GTGTGCACGTGGAAGT

Relative binding free energy, -0.19 kcal/mol:
ATGAGCACGTGCGCGG

Relative binding free energy, -0.05 kcal/mol:
TATGGCACGTGTGAAA
TAAGCCACGTGTGGTG
AAAGTCACGTGGGTTG
ATTCGCACGTGTGGTC
GTATACACGTGTTGCT
TCGGACACGTGTTGGT
TAAGTCACGTGGGGTC
ATGGACACGTGCGCGT

Relative binding free energy, 0.32 kcal/mol:
GGCGACACGTGATTGT
TCTTGCACGTGAGTTC
TGAATCACGTGGAAAG
AGTTTCACGTGTGCAA

Relative binding free energy, 0.29 kcal/mol:
GGCTACACGTGTGGAA
TTGGACACGTGAAGGC
TAATTCACGTGCAATT
ATTTTCACGTGTGCTG
TTGTACACGTGAATTG
GTGATCACGTGGAAAT
TTAGTCACGTGAATCG
TATTTCACGTGGTATA
GAGCTCACGTGGATGG

Relative binding free energy, 0.03 kcal/mol:
GTAGACACGTGGTCTT
TTTAGCACGTGTGGGT
AGGGGCACGTGATATA
AGGTACACGTGGCCGT
GGTGGCACGTGATGCT

Relative binding free energy, 0.28 kcal/mol:
TTATTCACGTGATTGT
GTGGTCACGTGTTAGG
GTGTACACGTGATTCG
GTAATCACGTGAGTGG

Relative binding free energy, 0 kcal/mol:
GGATCCACGTGTTGTG
CTGTGCACGTGGTTGA
TGTGTCACGTGGTCAC
CATTACACGTGGTGGG

Relative binding free energy, -0.12 kcal/mol:
ATATGCACGTGATGCG
AAGGGCACGTGTTTAT
CCTGGCACGTGGTTTG

Relative binding free energy, -0.2 kcal/mol:
TAAAGCACGTGTGTTG

Relative binding free energy, 0.1 kcal/mol:
CTGGACACGTGCGCGG
TTGGTCACGTGTCTCG
TGGGACACGTGGACTT
TTAGGCACGTGAAAGA
AGTATCACGTGTATGG
AATTACACGTGGTGAT
AATTTCACGTGGGGCT

Relative binding free energy, -0.1 kcal/mol:
GGCGGCACGTGGCACG
TGATCCACGTGGTATG
TACGGCACGTGGTGCA
AGGGCCACGTGTTTTG

Relative binding free energy, -0.18 kcal/mol:
TGGAGCACGTGTTGAT

Relative binding free energy, 0.4 kcal/mol:
GATTTCACGTGGTATG

Relative binding free energy, -0.14 kcal/mol:
AAGCGCACGTGGAGTG
TGGGTCACGTGCATGC
TTGTGCACGTGGCAGG

Relative binding free energy, -0.13 kcal/mol:
GCTGGCACGTGGGCGC

Relative binding free energy, 0.26 kcal/mol:
ATTTTCACGTGCCGGT
GGGGTCACGTGTATGT

Relative binding free energy, 0.22 kcal/mol:
AAGTTCACGTGGGGCG

Relative binding free energy, -0.31 kcal/mol:
ATGCGCACGTGGCTGG

Relative binding free energy, 0.15 kcal/mol:
TGGCTCACGTGGGTAA
TGTCACACGTGTAGGG
GGTTCCACGTGTAGGT
TAGATCACGTGTTGGA
GTGTACACGTGATGTA
ATTGACACGTGATAAT
TAGGTCACGTGGTTTG

Relative binding free energy, -0.08 kcal/mol:
TATGGCACGTGTGAGA
TTCGGCACGTGGTTTT
GTCTGCACGTGTTTTG
ATTGGCACGTGGTGGA
TCTGCCACGTGTTTGG
GTATGCACGTGGTAAT
TAAGACACGTGGTGGC

Relative binding free energy, 0.05 kcal/mol:
TCTCTCACGTGGGGGG
TGCTACACGTGGTTGT
TGAGTCACGTGGTTCA
GGTAACACGTGGAGAG

Relative binding free energy, 0.14 kcal/mol:
TGTATCACGTGTTATG
CGTTTCACGTGCGTTA
CGCGGCACGTGAGGTA
ATGCTCACGTGTGGAT
GGGATCACGTGGTGTT
ATGATCACGTGCAGTT
TGAGTCACGTGCGAAT
GTGCACACGTGAGGTT

Relative binding free energy, 0.35 kcal/mol:
CTGGTCACGTGAGGGT
TTCTTCACGTGTATGG
GGAAACACGTGAGTTA

Relative binding free energy, 0.33 kcal/mol:
ATGGTCACGTGAGGTT
GCTGACACGTGAGTGT
CATGTCACGTGTTTCA

Relative binding free energy, -0.01 kcal/mol:
GATGGCACGTGCTGGT
GTAGTCACGTGTGGAA
AACTGCACGTGGGGCG
GAGTACACGTGGGAGG

Relative binding free energy, 0.06 kcal/mol:
CTGTGCACGTGTGGAA
AAGTACACGTGCGGGG
GGATCCACGTGTGTTG

Relative binding free energy, 0.3 kcal/mol:
CCGTTCACGTGGCGGT
TGGTTCACGTGCAGGA
GTATTCACGTGTGAAT
GTTCTCACGTGATTTA

Relative binding free energy, 0.09 kcal/mol:
TAATACACGTGTTAAT
GGTTGCACGTGGATCG
CGAATCACGTGCGGGG
AGCGTCACGTGTAAGT
TGAGTCACGTGTTGAT

Relative binding free energy, 0.08 kcal/mol:
GTGGACACGTGCATTG
AGGTGCACGTGGTGAA
TGTCTCACGTGGCAGG
TAAGACACGTGTGATG
CTGGCCACGTGTGAGT
GGGTGCACGTGTACTT

Relative binding free energy, 0.16 kcal/mol:
CGGGTCACGTGGAATG
TTAAGCACGTGAGGCG
TTTTTCACGTGCACGT

Relative binding free energy, 0.13 kcal/mol:
CGGTACACGTGGAGGC
GCTTACACGTGGTTGG

Relative binding free energy, 0.21 kcal/mol:
GGTGGCACGTGAACTG
AGATTCACGTGTTGAG
AGATTCACGTGGAGTG
GTTTACACGTGTTTTC
TTGTTCACGTGGAGTG

Relative binding free energy, -0.11 kcal/mol:
GGTTGCACGTGGGCAA
GGGAGCACGTGGGTTG
TGAGGCACGTGCTTGA

Relative binding free energy, -0.16 kcal/mol:
ACTGTCACGTGGGCGG
TACGGCACGTGGGAGC

Relative binding free energy, 0.44 kcal/mol:
TGCGACACGTGAGAGT

Relative binding free energy, -0.03 kcal/mol:
AGTTACACGTGGTGTT
AGTTGCACGTGGTATA
ACATGCACGTGTTTAG
ATGGTCACGTGGGTAA
AAGCGCACGTGGGAGA
TAGGTCACGTGGGTAT
TTCTGCACGTGGTTGC

Relative binding free energy, -0.29 kcal/mol:
AGCGCCACGTGGGTGT

Relative binding free energy, -0.26 kcal/mol:
ACCGGCACGTGGGTGG
GTGAGCACGTGCGCGG

Relative binding free energy, 0.42 kcal/mol:
TTACTCACGTGAATGT
CTTTACACGTGAGTTA
ATTTTCACGTGTCAGC

Relative binding free energy, 0.27 kcal/mol:
GTAATCACGTGATGTG

Relative binding free energy, 0.36 kcal/mol:
GGGATCACGTGGAATT
TTGCTCACGTGAGTGG

Relative binding free energy, 0.11 kcal/mol:
GTTGTCACGTGTGCCT
CGTTCCACGTGGTTGG
TGTTCCACGTGTAGTA
GAAGTCACGTGTGTAG
TTGTGCACGTGGAGTT
TGTGGCACGTGAGGCC
GGCGACACGTGTTTGG
GGGGACACGTGTGATT

Relative binding free energy, 0.24 kcal/mol:
GTAAGCACGTGTGAGT
GGTTTCACGTGCCTGT
